Data from publication PMC5700166.
The list shows a part of the results, in another mix than the full data. The list includes weakly bound sequences.

Assays:
Assay in all cases: protein-binding microarray (PBM)
Details in all cases: PBM: ~300 nM protein, 6 mM HEPES pH 7.8, 80 mM KCl, 0.5 mM EDTA, 0.5 mM EGTA, 6% glycerol, 35 ng/ul poly-dIdC, 1% milk, 1 h, room temperature; Ap Aiptasia and Nv Nematostella (sea anemones) / Co Capsaspora / Aq Amphimedon (sponge) / Dm Drosophila / Hu human; RHD is the Rel homology domain; high values mean tight binding; most listed sequences are background and not binding sites; double strand, one strand shown
GST-Ap-NF-kB RHD = target: T1, GST-Ap-NF-kB RHD (UniProt A0A913YAJ5)
T1 sequence: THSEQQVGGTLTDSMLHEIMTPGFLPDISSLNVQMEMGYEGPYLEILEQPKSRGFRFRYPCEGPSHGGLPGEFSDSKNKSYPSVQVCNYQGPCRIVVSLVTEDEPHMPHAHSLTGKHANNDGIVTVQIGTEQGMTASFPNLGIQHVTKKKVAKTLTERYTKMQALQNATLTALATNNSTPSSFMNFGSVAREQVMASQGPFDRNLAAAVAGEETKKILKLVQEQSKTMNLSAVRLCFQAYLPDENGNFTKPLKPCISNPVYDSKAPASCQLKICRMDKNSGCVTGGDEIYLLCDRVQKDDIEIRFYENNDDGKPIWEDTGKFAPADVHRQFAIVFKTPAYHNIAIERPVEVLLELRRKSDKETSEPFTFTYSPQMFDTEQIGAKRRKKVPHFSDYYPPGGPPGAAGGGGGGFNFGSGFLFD

[1] = target: T2, GST-Nv-NF-kB (Cys allele) (UniProt E5G601)
T2 sequence: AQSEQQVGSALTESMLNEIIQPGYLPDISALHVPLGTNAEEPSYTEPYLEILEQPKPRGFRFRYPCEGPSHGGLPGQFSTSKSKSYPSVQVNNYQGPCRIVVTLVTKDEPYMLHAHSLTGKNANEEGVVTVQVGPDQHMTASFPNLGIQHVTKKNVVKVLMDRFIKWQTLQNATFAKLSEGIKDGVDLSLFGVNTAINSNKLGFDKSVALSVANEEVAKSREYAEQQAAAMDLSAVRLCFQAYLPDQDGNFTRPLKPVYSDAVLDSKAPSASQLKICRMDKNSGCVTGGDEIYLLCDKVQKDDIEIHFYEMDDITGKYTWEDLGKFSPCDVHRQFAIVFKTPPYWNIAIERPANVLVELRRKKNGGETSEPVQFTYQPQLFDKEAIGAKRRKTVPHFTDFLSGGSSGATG

GST-Co-NF-kB = target: T3, GST-Co-NF-kB (UniProt F1ARL5)
T3 sequence: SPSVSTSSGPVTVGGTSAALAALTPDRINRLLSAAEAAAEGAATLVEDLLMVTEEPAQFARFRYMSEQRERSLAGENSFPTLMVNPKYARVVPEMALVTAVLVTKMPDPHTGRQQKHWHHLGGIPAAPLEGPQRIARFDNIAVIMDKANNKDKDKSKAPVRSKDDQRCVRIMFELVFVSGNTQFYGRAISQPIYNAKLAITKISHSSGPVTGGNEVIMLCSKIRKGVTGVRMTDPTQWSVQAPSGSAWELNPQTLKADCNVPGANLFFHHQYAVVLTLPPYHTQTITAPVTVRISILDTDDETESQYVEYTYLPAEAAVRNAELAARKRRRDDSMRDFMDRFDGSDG

GST-Aq-NF-kB = target: T4, GST-Aq-NF-kB (UniProt A9Y5G7)
T4 sequence: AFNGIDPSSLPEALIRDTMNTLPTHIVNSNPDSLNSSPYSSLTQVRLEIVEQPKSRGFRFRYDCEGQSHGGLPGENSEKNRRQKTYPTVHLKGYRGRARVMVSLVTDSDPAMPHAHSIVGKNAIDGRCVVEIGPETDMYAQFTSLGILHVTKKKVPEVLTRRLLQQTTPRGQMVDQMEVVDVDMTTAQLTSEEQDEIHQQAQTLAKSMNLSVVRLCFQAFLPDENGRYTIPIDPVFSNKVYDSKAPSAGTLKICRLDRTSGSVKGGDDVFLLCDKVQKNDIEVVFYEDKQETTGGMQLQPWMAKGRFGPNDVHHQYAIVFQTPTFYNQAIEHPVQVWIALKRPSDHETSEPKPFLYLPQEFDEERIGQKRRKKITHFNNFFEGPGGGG

GST-Dm-Relish = target: T5, GST-Dm-Relish (UniProt Q94527)
T5 sequence: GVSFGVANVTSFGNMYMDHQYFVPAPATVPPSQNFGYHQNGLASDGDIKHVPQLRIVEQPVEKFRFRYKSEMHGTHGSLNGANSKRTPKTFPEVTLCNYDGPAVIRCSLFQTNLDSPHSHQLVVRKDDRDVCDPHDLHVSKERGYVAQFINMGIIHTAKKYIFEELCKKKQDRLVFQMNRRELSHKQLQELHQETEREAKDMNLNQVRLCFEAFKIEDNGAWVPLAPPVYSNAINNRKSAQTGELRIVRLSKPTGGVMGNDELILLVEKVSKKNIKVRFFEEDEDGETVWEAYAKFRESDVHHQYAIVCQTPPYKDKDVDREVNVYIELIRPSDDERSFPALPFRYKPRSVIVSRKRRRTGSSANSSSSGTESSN

Sequence | binding signal (GST-Ap-NF-kB RHD) | binding signal [1] | binding signal (GST-Co-NF-kB) | binding signal (GST-Aq-NF-kB) | binding signal (GST-Dm-Relish)
CCGATTAACATCAAGGCAATTCCTGATGTTAATCGGGTCTTGATTCGCTTGACGCTGCTG | -0.396 z-score | -0.0443 z-score | 0.339 z-score | 0.552 z-score | 
CCGATTAACATCAAGTAGTTTCCTGATGTTAATCGGGTCTTGATTCGCTTGACGCTGCTG | -0.123 z-score | 0.0909 z-score | 0.302 z-score | 0.568 z-score | 
CCGATTAACATCATCTACAACAGTGATGTTAATCGGGTCTTGATTCGCTTGACGCTGCTG | 0.0253 z-score | 0.404 z-score | 0.261 z-score | -0.21 z-score | 0.298 z-score
CCGATTAACATCAGGAAAGGCCATGATGTTAATCGGGTCTTGATTCGCTTGACGCTGCTG | -0.18 z-score | -0.23 z-score | -1.04 z-score | 1.31 z-score | 
CCGATTAACATCATCTGCCTTTTTGATGTTAATCGGGTCTTGATTCGCTTGACGCTGCTG | -0.132 z-score | 0.0146 z-score | 0.174 z-score | -0.214 z-score | -0.479 z-score
CCGATTAACATCATGATATCCGGTGATGTTAATCGGGTCTTGATTCGCTTGACGCTGCTG | 0.262 z-score | 0.242 z-score | 0.189 z-score | 0.557 z-score | 
CCGATTAACATCAGTACATTCCATGATGTTAATCGGGTCTTGATTCGCTTGACGCTGCTG | -0.314 z-score | -1.53 z-score | 0.0413 z-score | -0.0371 z-score | 
CCGATTAACATCATTTCTTACGGTGATGTTAATCGGGTCTTGATTCGCTTGACGCTGCTG | 0.205 z-score | 0.378 z-score | 0.658 z-score | 0.58 z-score | 
CCGATTAACATCACGTATGGTACTGATGTTAATCGGGTCTTGATTCGCTTGACGCTGCTG | 0.149 z-score | 0.485 z-score | -0.3 z-score | -0.0355 z-score | 0.349 z-score
CCGATTAACATCAAGTGATTTCCTGATGTTAATCGGGTCTTGATTCGCTTGACGCTGCTG | -0.0488 z-score | -0.404 z-score | -0.0331 z-score | 0.57 z-score | 
CCGATTAACATCACGAATTTCCATGATGTTAATCGGGTCTTGATTCGCTTGACGCTGCTG | -0.286 z-score | 0.213 z-score | 0.647 z-score | 0.00157 z-score | 0.479 z-score
CCGATTAACATCAATTGGTCGAGTGATGTTAATCGGGTCTTGATTCGCTTGACGCTGCTG | -0.0232 z-score | -0.956 z-score | -0.0329 z-score | -0.195 z-score | -0.189 z-score
CCGATTAACATCAGGAATTACACTGATGTTAATCGGGTCTTGATTCGCTTGACGCTGCTG | -0.334 z-score | -0.574 z-score | -0.093 z-score | 0.194 z-score | 
CCGATTAACATCAAGTATTTTCCTGATGTTAATCGGGTCTTGATTCGCTTGACGCTGCTG | 0.19 z-score | 0.183 z-score | 0.831 z-score | 0.748 z-score | 
